“And” between values parts separate entries of the source, which are not always exact repeats. Identical values can stand only once. Hit rate of the full screen: of about 94,000 compounds, about 6,200 (6.6%) were called active. Inconclusive means that the source gave no clear call. Such entries were picked first, then a sample of the others. Calls follow the shape of the dose curve; as a rule, active = well fitted inhibition curve with a large enough effect; inconclusive = small, poorly fitted or top-dose-only effect; inactive = flat fitted curve, though single readings scatter. Where the call is inconclusive, the potency comes from a doubtful curve fit.
Assay: Cytotoxic Profiling in HEK 293 Cell Line of Diverse Libraries Using Quantitative High-Throughput Screening; also: nearly all actives have a fitted effect of over 60% in size
Conditions: HEK 293 viability, ATP luminescence (CellTiter-Glo), 48-72 h; activity change, negative = cytotoxicity: at 115 µM (top of the series) unless noted; series mostly up to 115 µM
Outline: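 Viability of HEK 293 cells, plated at 250 cells/well, was judged by cellular ATP after compound treatment for 48 or 72 hr. Luminescence was imaged 10 min after CellTiter-Glo addition at room temperature.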
% is scaled to controls: 0 for no effect and ±100 for the full control effect; potency is read from the fitted curve at half-maximal effect; tags tell the direction and shape of the fitted curve.

SMILES | activity change, negative = cytotoxicity | Potency | outcome
CNC(=O)[C@H]1C[C@H](Oc2ccccc2)CN1C(=O)Nc1cccc(C)c1 | inactive: -14.3% | – | –
CCS(=O)(=O)CC(=O)N1CCn2nc(C(=O)Nc3ccccc3)cc2C1 | – | inconclusive: 89.1 µM [inhibitor, single point] | –
CC(C)Cn1c(=O)c(C(=O)Nc2cccc(Cl)c2)nc2cccnc21 | inactive: -8.94% | – | –
COc1ccc(NC(=O)N[C@H]2CO[C@H]3[C@@H]2OC[C@@H]3n2nnnc2Oc2ccc(-n3cncn3)cc2)cc1 | – | – | inactive
Cc1ccc(NC(=O)N2CCN(c3nnnn3-c3cccc(C(C)C)c3)CC2)cc1F | – | inconclusive: 50.1 µM [inhibitor, partial curve, poor fit] | –
OCC1(CN2CCCC2)CCN(Cc2ccc3ccccc3c2)CC1 | – | active: 39.8 µM | –
O=C1CC2(CCN(C(=O)C3CCN(C(=O)NC4CCCC4)CC3)CC2)Oc2ccccc2N1 | – | inconclusive: 79.4 µM [inhibitor, single point] | –
Cc1noc(C)c1[S+](=O)([O-])N1CCC(C(=O)N2CCC(c3nc4ccncc4[nH]3)C2)CC1 (stereo not given) | inactive: -0.958% | – | –
Cc1nn2c(c1-c1ccccc1[S+](C)(=O)[O-])N(CCC(C)C)CCC2 | – | inconclusive: 15.8 µM [inhibitor, full curve, poor fit] | –
CCCCN1C(=O)c2ccccc2C(C(=O)Nc2nc(C)cs2)C12CCCC2 (stereo not given) | inactive: -15.7% | – | –
CCC(=O)N1CCN(c2nc3c(s2)CC(C(=O)NC2CCCCCC2)CC3)CC1 (stereo not given) | – | inconclusive: 50.1 µM [inhibitor, partial curve, poor fit] | –
COc1ccc(C(=O)NC2CCCN(c3cc(-c4ccc(Cl)cc4)[nH]n3)C2)cc1 (stereo not given) | – | inconclusive: 35.5 µM [inhibitor, full curve, poor fit] | –
O=C(C1CN(C2CCCCC2)C(=O)N1)N1CCc2ccccc2C1 (stereo not given) | – | active: 25.1 µM | –
O=C(CC(c1ccccc1)c1ccccc1F)NCc1cccnc1 (stereo not given) | – | inconclusive: 44.7 µM [inhibitor, partial curve, poor fit] | –
COc1ccc(-c2ccc3c(c2)C(=O)N2CCN(C(=O)COc4ccccc4)C[C@@H]2C(=O)N3)cc1 | – | inconclusive: 39.8 µM [inhibitor, full curve, poor fit] | –
COc1ccc(CN(C)C(=O)c2ccc3oc(C)cc3c2)c2cccnc12 | – | inconclusive: 25.1 µM [inhibitor, partial curve, poor fit] | –
COc1ccc(-c2noc([C@@H]3CCCN3C(=O)c3ccc(C)c(C)c3)n2)cc1OC | – | inconclusive: 79.4 µM [inhibitor, partial curve, poor fit] | –
c1ccc(CCN2CCNc3cc(Nc4ccc(N5CCOCC5)cc4)ncc3C2)cc1 | – | active: 50.1 µM | –
CCCn1ncc(C(=O)N2CCOC(CCCC(C)C)C2)c1C (stereo not given) | – | inconclusive: 44.7 µM [inhibitor, partial curve, poor fit] | –
F[C@@H]1CN(Cc2ccc(C(F)(F)F)cc2)C[C@@H]1OCc1nc2ccncc2[nH]1 | – | inconclusive: 35.5 µM [inhibitor, partial curve, poor fit] | –
Cc1ccc2nc3n(c2c1)[C@@H](CNC(=O)c1ccc(C#N)cc1)COC3 | – | inconclusive: 112 µM [inhibitor, partial curve] | –
O=C(NCC1Cn2cccc2CN1Cc1ccccc1)c1cncc(Br)c1 (stereo not given) | – | active: 89.1 µM | –

SMILES | activity change, negative = cytotoxicity | Potency | outcome
COc1cc(C(=O)N2c3ccccc3CC2c2nc(C(C)C)no2)cc(OC)c1OC (stereo not given) | inactive: -29.4% | – | –
O=C1c2cnc(-c3ccccc3OCc3ccccc3)nc2OCCN1CC1CC1 | – | inconclusive: 100 µM [inhibitor, partial curve, poor fit] | –
CCNC(=O)[C@@H]1C[C@H](N)CN1C(=O)c1c(C)nc2sccn12 | inactive: -4.5% | – | –
CCCn1ccnc1CN1CCCn2nc(-c3nc4ccccc4n3C)cc2C1 | – | inconclusive: 50.1 µM [inhibitor, partial curve, poor fit] | –
O=C1[C@H]2CN(Cc3ccc(Cl)c(F)c3)C[C@H]2C(=O)N1CCc1ccccc1 | – | inconclusive: 56.2 µM [inhibitor, partial curve, poor fit] | –
C=CCNC(=O)N[C@H]1CCN2C(=O)c3ccc(Cl)cc3NC(=O)[C@@H]2C1 | – | inconclusive: 56.2 µM [inhibitor, full curve] | –
COc1ccc(C(=O)Nc2ccc(-c3noc([C@@H]4CCCN4Cc4ccc(F)cc4)n3)cn2)cc1 | – | inconclusive: 12.6 µM [inhibitor, full curve, poor fit] | –
Cc1ccc(C(=O)N2CCC[C@H]2c2nc(-c3ccccc3Cl)no2)cc1 | – | inconclusive: 56.2 µM [inhibitor, partial curve, poor fit] | –
CC1CCC2(CC1)OCC(C(=O)NC(C)(C)C)N2C(=O)c1ccc(F)cc1 (stereo not given) | – | inconclusive: 79.4 µM [inhibitor, partial curve, poor fit] | –
C=CCOc1c(OC)ccc2c1CN(C1CCCC1)C(=O)CCN2CC(O)COCc1ccco1 (stereo not given) | – | inconclusive: 35.5 µM [inhibitor, partial curve, poor fit] | –
O=C(NCc1ccc(F)cc1F)C1CCN(Cc2ccccc2-c2cccnc2)CC1 | – | inconclusive: 89.1 µM [inhibitor, single point] | –
Cc1cc(C)c(CNC(=O)c2nc(-c3cccc(O)c3)cc3c2ccn3C(C)C)c(=O)[nH]1 | – | inconclusive: 28.2 µM [inhibitor, full curve] | –
COc1ccccc1C(=O)N1CCc2nc(C3CC3)nc(-c3ccc(Cl)cc3)c2C1 | – | inconclusive: 79.4 µM [inhibitor, single point] | –
O=C(C1CCCCN1Cc1ccc(-c2ccsc2)cc1)N1CCC(Cc2ccccc2)CC1 (stereo not given) | – | inconclusive: 12.6 µM [inhibitor, full curve, poor fit] | –
COc1cccc(CNC(=O)c2cn3cc(-c4cccc(C(F)(F)F)c4)sc3n2)c1 | – | inconclusive: 89.1 µM [inhibitor, single point] | –
CC(C)Cn1c(=O)c(C(=O)N2CCN(c3ncccn3)CC2)nc2cccnc21 | inactive: -9.28% | – | –
O=C(c1ccc(F)cc1)N1CCC(C(=O)N2CCCC(c3nc4ccncc4[nH]3)C2)CC1 (stereo not given) | – | – | inactive
O=C(NC1CC1)C1CCCN(Cc2cccc(-c3cccs3)c2)C1 (stereo not given) | – | active: 39.8 µM | –
O=C(CNC(=O)c1cnccn1)NC1CCCc2c1[nH]c1ccc(Cl)cc21 (stereo not given) | inactive: -68.7% | – | –
FC(F)(F)c1ccnc(N2CCC(OCc3cccnc3)CC2)n1 | – | inconclusive: 56.2 µM [inhibitor, partial curve, poor fit] | –
O=C(c1ccccc1F)N1CCn2c(nnc2C2CCNCC2)C1 | inactive: 3.86% | – | –
c1cc2nc(-c3ccsc3)[nH]c2cn1 | – | inconclusive: 112 µM [inhibitor, partial curve, poor fit] and inconclusive: 141 µM [inhibitor, single point] | –

SMILES | activity change, negative = cytotoxicity | Potency | outcome
O=C(c1ccsc1)N1CCC2(CC1)N=C(c1ccc(Cl)cc1)NO2 | – | inconclusive: 89.1 µM [inhibitor, single point] | –
CCC1CCCCN1C(=O)c1ccc(-c2nnc3ccc(NC(=O)C4CCC4)cn23)cc1 (stereo not given) | – | inconclusive: 79.4 µM [inhibitor, partial curve] | –
Cn1cc(-c2cccc(CO)c2)c2nc(CNc3ccccc3)cn2c1=O | – | inconclusive: 100 µM [inhibitor, partial curve] | –
COc1cccc(NC(=O)Cn2c(N3CCc4ccccc4C3)nc(C)cc2=O)c1 | – | active: 20 µM | –
Cc1ccsc1C(=O)Nc1ccc(-c2nnc3n2CCCC3)cc1 | inactive: -26.9% | – | –
CCN1CCCN(S(C)(=O)=O)CC12CCOCC2 | inactive: -10.1% | – | –
Cc1nn2c(c1-c1ccccc1Oc1ccccc1)N(C(=O)C1CCC1)CCC2 | – | active: 89.1 µM | –
O=S(=O)(NC[C@@H]1CCNC[C@H]1O)N1CCCCCC1 | – | – | inactive
CCC(C(=O)N1CCCN(c2cc(-c3ccc(OC)cc3)[nH]n2)CC1)c1ccccc1 (stereo not given) | – | active: 39.8 µM | –
Cc1cccc(-c2ocnc2C(=O)N2CCCOCCNC(=O)CC2)c1 | inactive: -14.5% | – | –
Cn1ncc2c(C(=O)NC3CCC3)cc(-c3ccc(C(F)(F)F)cc3)nc21 | – | active: 39.8 µM | –
CC(C)NC(=O)c1ccc2nnc(-c3cccc(OC(F)(F)F)c3)n2c1 | – | inconclusive: 22.4 µM [inhibitor, full curve, poor fit] | –
O=C(NC1CC1)c1ccc2nc(-c3cccnc3Cl)oc2c1 | inactive: -25.2% | – | –
O=c1c2c(nc3cc(-c4ccccc4)[nH]n13)CN(S(=O)(=O)c1cccs1)CC2 | – | inconclusive: 79.4 µM [inhibitor, partial curve, poor fit] | –
O=C(N[C@H]1CCN2C(=O)c3cc(-c4ccc(F)cc4F)ccc3NC(=O)[C@H]12)C1CCCC1 | – | inconclusive: 35.5 µM [inhibitor, partial curve, poor fit] | –
CNC(=O)[C@H]1CN(C(=O)CCc2ccccc2)[C@]2(C)C(=O)N(CCO)c3ccccc3[C@H]12 | – | inconclusive: 44.7 µM [inhibitor, single point] | –
CN(C)CCNC(=O)c1nc2nc(-c3ccccc3)c(-c3cccc(Cl)c3)cc2n1C | – | active: 28.2 µM | –
CN(C)S(=O)(=O)N1CCC(F)(c2nc(-c3ccccc3)no2)CC1 | – | inconclusive: 50.1 µM [inhibitor, partial curve, poor fit] | –
COCc1ccc2c(c1)c(OC(C)(C)C(=O)N1CCOCC1)nn2Cc1cccc(OC)c1 | inactive: -29.3% | – | –
O=C(NCc1ccccc1)C1CCCN1C(=O)c1cccc(-c2ccccn2)c1 (stereo not given) | inactive: -4.98% | – | –
Cn1ncc2c(C(=O)N3CCCCC3)cc(-c3ccccc3C(F)(F)F)nc21 | – | inconclusive: 56.2 µM [inhibitor, partial curve, poor fit] | –

— PubChem BioAssay AID1345083 (National Center for Advancing Translational Sciences (NCATS), 2018)
